In the antibiotic and cytotoxicity screens of Wong et al. (2023):
Some of the results follow.

system: HSkMC (human skeletal muscle cells); assay: cytotoxicity call (relative viability < 0.9); conditions: 10 µM

SMILES | cytotoxicity call
COc1ccc(S(=O)(=O)N(C)C[C@@H]2OCCCC[C@@H](C)Oc3ccc(NS(=O)(=O)c4cn(C)cn4)cc3C(=O)N([C@H](C)CO)C[C@H]2C)cc1 | inactive
COc1ccc(S(=O)(=O)N(C)C[C@H]2Oc3ccc(NS(=O)(=O)c4ccc(C)cc4)cc3CC(=O)N([C@H](C)CO)C[C@H]2C)cc1 | inactive
c1cnc(-c2cn[nH]c2)cn1 | inactive
C[C@@H]1CCCCO[C@H](CN(C)Cc2ccc(C(=O)O)cc2)[C@@H](C)CN([C@H](C)CO)C(=O)c2cc(NC(=O)Cc3ccccc3)ccc2O1 | inactive
C[C@H](CO)N1C[C@H](C)[C@H](CN(C)S(=O)(=O)c2ccccc2)Oc2ncc(C#CC3(O)CCCC3)cc2C1=O | inactive
Cc1noc(C)c1NC(=O)Nc1ccc2c(c1)C(=O)N([C@H](C)CO)C[C@@H](C)[C@H](CN(C)Cc1ccc(-c3ccccc3)cc1)O2 | inactive
C[C@@H]1CCCCO[C@@H](CN(C)Cc2ccc(Cl)c(Cl)c2)[C@@H](C)CN([C@@H](C)CO)C(=O)c2cc(NC(=O)Cc3ccccc3)ccc2O1 | inactive
CCOc1ccc(C(=O)Nc2ccc(N3CCN(C(=O)c4cccs4)CC3)c(Cl)c2)cc1Br | inactive
CO[C@H]1CN(C)C(=O)c2cc(NS(=O)(=O)CC(F)(F)F)ccc2OC[C@@H](C)N(C(=O)c2ccc3c(c2)OCO3)C[C@@H]1C | inactive
C[C@H]1CN([C@@H](C)CO)C(=O)c2cc(NC(=O)CCCN(C)C)ccc2O[C@@H]1CN(C)C(=O)Nc1ccc2c(c1)OCO2 | inactive
C[C@H](CO)N1C[C@H](C)[C@@H](CN(C)C(=O)Nc2ccc(F)cc2)OCCCC[C@H](C)Oc2ccc(NC(=O)c3ccncc3)cc2C1=O | inactive
